Results taken from ChEMBL document CHEMBL4888484, “Replenishing the malaria drug discovery pipeline: Screening and hit evaluation of the MMV Hit Generation Library 1 (HGL1) against asexual blood stage Plasmodium falciparum ,using a nano luciferase reporter read-out” (2022).
Hit rate of the full screen: of about 150,000 compounds, about 540 (0.36%) showed an effect of 50% or more. Some of the results follow.

system: Plasmodium falciparum; test: Primary screen in NF54 nanoGlo assay, in single point, at 2uM, 72h; a lower Z score goes with more inhibition; assay type: functional, Erythrocyte; conditions: timepoint 72 hour

| SMILES | % Inhibition | Z score |
| --- | --- | --- |
| Cn1nc(NC(=O)C2CCCCC2)c2cccnc21 | 0% | -0.03 |
| COc1cc(OC)c(OC)cc1CN1CC[C@@]2(CCCN(CC3CCC3)C2)C1 | -7% | 0.66 |
| Cc1ccc(OCC(=O)Nc2ccc(N3CCN(c4c(F)c(F)c(F)c(F)c4F)CC3)c(Cl)c2)cc1C | 13% | -2.02 |
| O=C(NC(c1ccccc1)[C@H]1C[C@@H](O)C1)c1ccc(CO)cc1 (stereo partly specified) | -10% | 1.78 |
| Nc1nc(CN[C@@H](CCc2ccc(F)cc2)C2CCC2)n[nH]1 | -7% | 1.16 |
| CCCCCNC(=O)CN1CCC2(O)CCCCC2[C@@H]1c1ccc(O)c(OC)c1 (stereo partly specified) | -12% | 2.21 |
| O=C(NCc1ccccc1Cl)c1cc(NS(=O)(=O)c2ccc(F)cc2)cc(NS(=O)(=O)c2ccc(F)cc2)c1 | -1% | 0.22 |
| CCn1cnnc1CNC1CCCCC1c1ccccc1 (stereo unspecified) | 0% | -0.06 |
| CCCCn1c(N)c(N(C(=O)[C@@H]2COc3ccccc3O2)C2CCCC2)c(=O)[nH]c1=O | 25% | -2.79 |
| Cc1noc(C2CCCN(C(=O)C(C(C)C)n3cncn3)C2)n1 (stereo unspecified) | 6% | -1.23 |
| CC1CCCCC1N(C)C(=O)c1ccc(=O)n(C)n1 (stereo unspecified) | -11% | 1.43 |
| CC[N+](CC)(CC)C1[N-]c2ccc(C)cc2C(c2ccccc2)(C(F)(F)F)N1 (stereo unspecified) | -10% | 1.83 |
| CCn1c(CN2CCCC2)nc2cc(S(=O)(=O)N3CCCCC3)ccc21 | -46% | 5.44 |
| O=C(Cc1scnc1-c1cccs1)NCc1ccc(F)cc1 | -1% | 0.07 |
| O=c1c2cc(F)ccc2c(Br)cn1CC1(CO)COC1 | 20% | -2.48 |
| Cc1ccc(C(=O)N2CCC[C@@H]2COc2ccc(C(=O)N3CCOCC3)cc2)cc1F | -36% | 6.88 |
| Cc1csc(CNc2ccc(F)cc2OCC(F)F)n1 | -11% | 1.79 |
| CS(=O)(=O)Nc1ccc2c(c1)C(=O)Nc1ccccc1O2 | -12% | 1.39 |
| O=C(C1CCCC1)N1Cc2cccnc2C1 | -7% | 1.21 |
| COC(=O)[C@](NC(=O)C(F)(F)F)(c1cccn1C)C(F)(F)F | -6% | 0.92 |
| CCn1nccc1CNc1nc(C)nn1C | -12% | 1.78 |
| N#CCN(C1CC1)S(=O)(=O)c1ccc2c(c1)CCO2 | -16% | 1.61 |
| C[C@H](Oc1ccccc1)C(=O)NC(C)(C)CC(C)(C)C | -12% | 2.32 |
| CCOc1cccc2nnc(NC(=O)CCC(=O)N3CCCCCC3)n12 | -13% | 1.46 |
| CS(=O)(=O)NC1CCCCC1CNC(=O)[C@H]1C[C@@H]1C1CC1 (stereo partly specified) | 4% | -0.63 |
| Cc1nc(C(=O)N(Cc2cccnc2)C2CCN(C)CC2)c(C)s1 | -24% | 2.37 |
| COCC1(S(=O)(=O)N[C@@H](C(=O)OC)c2cc(C)cc(C)c2)CC1 | -6% | 0.69 |

| SMILES | % Inhibition | Z score |
| --- | --- | --- |
| O=C(NC[C@H](O)C1CCC1)C1(O)CCCCC1 | -10% | 1.91 |
| O=C(NC1CCCCCCC1)c1ccc(CN2C(=O)CCn3nc(-c4ccccc4)cc32)cc1 | 14% | -1.59 |
| CCOC(=O)[C@H]1CCCN(c2nc(-c3cccc(OC)c3)cc(C(F)(F)F)n2)C1 | 32% | -3.67 |
| Cc1n[nH]cc1CN(C)C(=O)c1cnc2cccc(C)n2c1=O | -14% | 2.08 |
| CC(=O)N1CCc2c(sc(NC(=O)c3ccc4c(c3)OCCO4)c2-c2nc3ccccc3s2)C1 | -5% | 0.9 |
| Cc1cc(C(=O)N2CCn3nc(C(=O)N4CCCC4)cc3C2)[nH]n1 | 5% | -0.82 |
| CC(C)(CNC(=O)NCc1cc(F)cc(F)c1)C1(O)CCOCC1 | -2% | 0.28 |
| CC(C)Cn1nccc1C(=O)N[C@H](CO)Cc1nccs1 | -6% | 1.24 |
| CC1(CO)CCCC1NS(=O)(=O)N1CCCCCC1 (stereo unspecified) | -4% | 0.38 |
| CCCC(CCC)N(CC1CC2CCC(C1)N2C)C(=O)CNC(=O)CC(C)(C)C (stereo unspecified) | 5% | -0.6 |
| CCC(=O)Nc1ccc(N2CCN(C(=O)C3CCCC3)CC2)c(C(=O)NCc2ccc(F)cc2)c1 | -11% | 1.8 |
| COc1cccc(N2C[C@H](C)N(C(=O)NCc3ccc(C)cc3)CC2=O)c1 | 3% | -0.35 |
| CC(C)=CCN1C(=O)[C@@H]2CC[C@H]1CN(C(=O)CCn1ccc(=O)[nH]c1=O)C2 | -10% | 1.03 |
| CN1CC(=O)N(C[C@]2(C)OCCc3ccccc32)C1=O | -7% | 0.74 |
| Cc1n[nH]cc1CN(C)C(=O)CCCc1cn[nH]c1 | -7% | 1.25 |
| O=C(NC[C@@H](CO)Cc1ccc(F)c(F)c1)c1cc(C2CC2)no1 | 0% | 0.03 |
| O=C(Cn1cc(-c2ccc(F)cc2)cn1)N1CCN(c2ccccn2)CC1 | -6% | 1.08 |
| COc1ccccc1-c1noc(C2CCN(c3oc(C)nc3C#N)CC2)n1 | 21% | -2.84 |
| CC(=O)c1c(-c2ccc(C(=O)N(C)Cc3nc(C)cs3)cc2)cnn1C | 1% | -0.15 |
| O=C(NCc1ccco1)N(CCN1CCCCC1)C1CCOCC1 | 5% | -0.88 |
| CC(C)Cn1cc(C(=O)NCCS(N)(=O)=O)cn1 | -2% | 0.38 |
| C=CCC[C@H](O)CN(Cc1c(C(C)C)nn(-c2ccccc2)c1Oc1ccccc1F)CC1CC1 | -7% | 1.09 |
| CCN(Cc1cccs1)C(=O)c1cc(C)no1 | 1% | -0.09 |
| C=CCCC(=O)NCCc1ccc(C)c(OC)c1 | 4% | -0.62 |
| Cc1sc2ccccc2c1-c1ccn(CC(=O)Nc2cnn(C)n2)n1 | -5% | 0.79 |
| COc1ccc(NC(=O)COc2c(C)[nH]ccc2=O)c(OC)c1 | 2% | -0.3 |
